Laboratory results published in PubChem BioAssay AID886 (National Center for Advancing Translational Sciences (NCATS), 2007).
Several values for one entry are separate records, joined by “and”; a condition that tells them apart may be missing. Equal values may be shown once. Screen size: about 73,000 compounds; about 2,500 (3.4%) were called active. Inconclusive means that the source gave no clear call. Such entries were picked first, then a sample of the others. The call rests on the fitted dose curve; in most records, active means well fitted inhibition curve with a large enough effect; inconclusive means small, poorly fitted or top-dose-only effect; inactive means no such curve, though single readings can be large or run the other way. Potencies beside an inconclusive call are fits to weak or partial responses and may not hold up.

Target: 3-hydroxyacyl-CoA dehydrogenase type-2 (Homo sapiens) (UniProt Q99714)
UniProt Q99714, sequence (Q99714 whole entry, looked up): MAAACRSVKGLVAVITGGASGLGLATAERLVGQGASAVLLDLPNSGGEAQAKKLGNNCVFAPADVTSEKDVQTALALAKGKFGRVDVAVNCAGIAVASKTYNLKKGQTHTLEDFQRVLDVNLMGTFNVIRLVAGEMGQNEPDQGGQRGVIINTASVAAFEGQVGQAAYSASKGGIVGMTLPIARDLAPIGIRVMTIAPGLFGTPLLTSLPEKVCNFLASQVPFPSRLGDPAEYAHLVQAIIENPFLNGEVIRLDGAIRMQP
UniProt Q99714, sequence (Q99714 whole entry, looked up): as above
Experiment: qHTS Assay for Inhibitors of HADH2 (Hydroxyacyl-Coenzyme A Dehydrogenase, Type II); further: nearly all actives have a fitted effect of over 60% in size
Details: recombinant HADH2, NADH fluorescence, beta-hydroxybutyryl-CoA; activity change, negative = inhibition: at 57.1 µM (top of the series)
How it was run: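 Read-out: 360 nm excitation, 450 nm emission, kinetic over 4 min. Conditions: His-tagged human HADH2 20 nM, pH 9.0 Tris with Tween-20, 1 mM NAD+, 90 uM beta-hydroxybutyryl-CoA.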
On the % scale 0 is the no-effect control and ±100 the full control effect; potency means the concentration at half of the fitted maximal effect; tags describe the fitted curve by direction and shape.

Question: With `Cc1cccc([C@@H]2CN(C)CCc3c2cc(O)c(O)c3Cl)c1` as the compound, how does the Potency read?
Answer: active: 2 µM and active: 126 nM

Question: Which Potency does the source give for `COc1ccc(-c2cc(C(F)F)n3ncc(C(=O)N4CCN5CCCC5C4)c3n2)cc1` (stereo not drawn) here?
Answer: inconclusive: 39.8 µM [inhibitor, single point]

Question: For `Cc1ccccc1-c1nc(NCc2cccnc2)c2ccccc2n1`, which Potency is on record?
Answer: inconclusive: 15.8 µM [inhibitor, partial curve]

Question: How did the Potency turn out when `CC(C)(C)n1nnnc1C(c1cc2cc3c(cc2[nH]c1=O)OCCO3)N1CCSCC1` (stereo not drawn) was run?
Answer: inactive

Question: `Cc1ccc(OCC(O)CNS(=O)(=O)c2ccccc2C(=O)N2CCCCC2)cc1` (stereo not drawn) was tested. Which Potency did it give?
Answer: inactive

Question: With `CCOCC(=O)Nc1nc2ccc(S(C)(=O)=O)cc2s1` as the compound, how does the Potency read?
Answer: inconclusive: 39.8 µM [inhibitor, single point]

Question: `O=C(Nc1nnc(-c2ccco2)s1)c1ccccc1` was tested. Which Potency did it give?
Answer: inconclusive: 15.8 µM [inhibitor, partial curve]

Question: For `O=C(Nc1ccc(Cl)cc1C(=O)Nc1ccc(Br)cn1)c1ccco1`, which Potency is on record?
Answer: inconclusive: 39.8 µM [inhibitor, single point]

Question: Which Potency does the source give for `c1ccc(-n2nnnc2SCc2cn3cccnc3n2)cc1` here?
Answer: active: 25.1 µM

Question: For `COc1ccc(CNc2ncncc2-c2ccc(C(=O)N(C)C)cc2)c(OC)c1`, which Potency is on record?
Answer: inconclusive: 5.01 µM [inhibitor, full curve, poor fit]

Question: How did the Potency turn out when `CCCCN(C)CCCNC(=O)CC1Oc2ccccc2NC1=O` (stereo not drawn) was run?
Answer: inconclusive: 25.1 µM [inhibitor, partial curve]

Question: How did the Potency turn out when `O=C(Nc1ccc(-c2nc3ncccc3o2)cc1)c1ccco1` was run?
Answer: active: 31.6 µM

Question: For `CCCCNc1nc(C)nc2c1nc(-c1ccccc1)n2CC1CCCN1CC` (stereo not drawn), which Potency is on record?
Answer: inactive

Question: `CCCC1C(C#N)=C(N)Oc2cc(C)n(C)c(=O)c21` (stereo not drawn) was tested. Which Potency did it give?
Answer: inconclusive: 39.8 µM [inhibitor, single point]

Question: Which Potency does the source give for `CCOC(=O)c1c(C)oc2c1c1c(c3ccccc32)OCN(Cc2cccnc2)C1` here?
Answer: inconclusive: 12.6 µM [inhibitor, partial curve]

Question: With `O=C1NC(c2ccccn2)Nc2sc3c(c21)CCC3` (stereo not drawn) as the compound, how does the Potency read?
Answer: inconclusive: 25.1 µM [inhibitor, partial curve]

Question: For `COc1ccc(N2CSC3=C(C#N)C(c4cc(OC)ccc4OC)CC(=O)N3C2)c(OC)c1` (stereo not drawn), which Potency is on record?
Answer: active: 2 µM

Question: For `Cc1n[nH]c(=O)nc1NCc1ccccc1Cl`, which Potency is on record?
Answer: inconclusive: 39.8 µM [inhibitor, single point]

Question: With `CN(C)CCCNc1oc(-c2cccc(Cl)c2)nc1C#N` as the compound, how does the Potency read?
Answer: active: 25.1 µM

Question: For `CCCC(=O)N1CCc2cc(-c3nc(N)sc3C)ccc21`, which Potency is on record?
Answer: inconclusive: 39.8 µM [inhibitor, single point]

Question: For `CCC(C)c1ccc2oc(-c3ccc(NC(=O)c4ncn[nH]4)cc3)nc2c1` (stereo not drawn), which Potency is on record?
Answer: active: 31.6 µM

Question: Which activity change, negative = inhibition does the source give for `O=C(CCCc1ccccc1)NC1CCSC1=O` (stereo not drawn) here?
Answer: inactive: 13.5% [at 11.4 µM]

Question: Which Potency does the source give for `CC1(C(=O)N(CC(=O)NC2CCCC2)Cc2ccco2)CC(=O)N=C2C=CC=CN21` (stereo not drawn) here?
Answer: active: 25.1 µM

Question: For `O=C(Nc1ccc(N2CCCC2)cc1)c1ccc(Br)o1`, which Potency is on record?
Answer: inconclusive: 3.98 µM [inhibitor, single point]

Question: With `c1ccc2nc3[nH]cnc3nc2c1` as the compound, how does the Potency read?
Answer: inconclusive: 31.6 µM [inhibitor, single point]

Question: Which Potency does the source give for `CN(C(=O)CSc1nc2c(c(=O)[nH]1)CCCC2)C1CCCCC1` here?
Answer: inactive

Question: Which Potency does the source give for `O=C(O)c1cccc(N2CCCC2)c1` here?
Answer: active: 31.6 µM

Question: Which Potency does the source give for `CSc1ccc(C(=O)c2[nH]c(=O)[nH]c2C)cc1` here?
Answer: inconclusive: 6.31 µM [inhibitor, partial curve]

Question: Which Potency does the source give for `Cc1cc(C(=O)NCc2cccs2)n(-c2ccccc2)n1` here?
Answer: inactive

Question: For `COc1ccc(CCn2c(N)c(C#N)c3nc4ccccc4nc32)cc1OC`, which Potency is on record?
Answer: inconclusive: 31.6 µM [inhibitor, single point]

Question: With `CCOC(=O)c1ccc(NC(=O)N2CCN(CCc3ccccc3)CC2)cc1` as the compound, how does the Potency read?
Answer: inactive

Question: For `O=C(CSc1nc2ccccc2c(=O)[nH]1)c1cccs1`, which Potency is on record?
Answer: inconclusive: 31.6 µM [inhibitor, single point]

Question: With `CN(C)c1ncc2nc(-c3ccccc3)c(=O)n(Cc3cccs3)c2n1` as the compound, how does the Potency read?
Answer: inactive

Question: Which Potency does the source give for `COc1ccc(-c2cc(N)n(S(=O)(=O)c3c(F)c(F)c(F)c(F)c3F)n2)cc1OC` here?
Answer: inconclusive: 2.51 µM [inhibitor, full curve]

Question: How did the Potency turn out when `COc1ccccc1-c1cc(NCc2cccnc2)ncn1` was run?
Answer: inconclusive: 39.8 µM [inhibitor, single point]

Question: Which Potency does the source give for `COc1ccc(C2c3sc(=O)[nH]c3SC3C4CCC(C4)C23)cc1` (stereo not drawn) here?
Answer: active: 1.26 µM

Question: For `CCOC(=O)CSc1nnc(CNC(=O)c2ccc(OC)cc2)n1-c1ccc(OC)cc1`, which Potency is on record?
Answer: inconclusive: 39.8 µM [inhibitor, single point]

Question: How did the Potency turn out when `CCCNS(=O)(=O)c1ccc(OCC(=O)NCc2ccc3c(c2)OCO3)cc1` was run?
Answer: inactive

Question: For `COc1ccc(Oc2ncc3nc(-c4ccc(F)cc4)c(=O)n(C[C@H]4CCCO4)c3n2)cc1`, which Potency is on record?
Answer: inconclusive: 39.8 µM [inhibitor, single point]

Question: Which Potency does the source give for `CCCOC(=O)C1=C(C)NC2=C(C(=O)CCC2)C1c1cccc(OC)c1OC` (stereo not drawn) here?
Answer: inconclusive: 39.8 µM [inhibitor, single point]

Question: For `Cc1ccc(N2CC(C(N)=O)CC2=O)cc1` (stereo not drawn), which Potency is on record?
Answer: inactive

Question: `Cc1cccc(-n2nnnc2SCc2csc(-c3ccccc3)n2)c1` was tested. Which Potency did it give?
Answer: inconclusive: 39.8 µM [inhibitor, single point]

Question: `CCOC(=O)N1CCC(NC(=O)c2cc(S(=O)(=O)N3CCCC3)cn2C)CC1` was tested. Which Potency did it give?
Answer: inactive

Question: For `O=C(CSCc1nc2ccccc2[nH]1)N1CCN(c2ccc(F)cc2)CC1`, which Potency is on record?
Answer: inconclusive: 39.8 µM [inhibitor, single point]

Question: How did the Potency turn out when `Cc1cnc(CNc2ccnc(-c3ccccc3CN(C)C)n2)cn1` was run?
Answer: inconclusive: 20 µM [inhibitor, partial curve]

Question: How did the Potency turn out when `CCOC(=O)N1CCN(c2nc3ccccc3nc2C(C#N)S(=O)(=O)c2ccc(C)cc2)CC1` (stereo not drawn) was run?
Answer: inactive

Question: `CCOC(=O)c1sc(NC(=O)CSc2nnc3c4ccccc4n(CC)c3n2)nc1C` was tested. Which Potency did it give?
Answer: inconclusive: 7.94 µM [inhibitor, full curve]

Question: With `CN1CCC[C@@H]1c1cccnc1.O=C(O)c1ccccc1O.O=C([OH2+])c1ccccc1O.O=C([OH2+])c1ccccc1O.O=C([OH2+])c1ccccc1O.[Mn]` as the compound, how does the Potency read?
Answer: inconclusive: 3.98 µM [inhibitor, single point]

Question: With `COc1ccc2[nH]c3ccc(OC)cc3c2c1` as the compound, how does the Potency read?
Answer: inconclusive: 25.1 µM [inhibitor, single point]

Question: How did the Potency turn out when `O=C(c1ccco1)N1CCC(n2nnc3ccccc32)CC1` was run?
Answer: inactive

Question: Which Potency does the source give for `NC(=O)c1cc[n+](CC2=C(C(=O)[O-])N3C(=O)[C@@H](NC(=O)Cc4cccs4)[C@@H]3SC2)cc1` here?
Answer: inconclusive: 10 µM [inhibitor, partial curve]

Question: With `O=C(NCc1ccco1)c1cnn2c(C(F)F)cc(-c3ccccc3)nc12` as the compound, how does the Potency read?
Answer: inconclusive: 39.8 µM [inhibitor, single point]

Question: `O=c1cc(C(F)(F)F)c2sc(N3CCCCC3)nc2[nH]1` was tested. Which Potency did it give?
Answer: active: 31.6 µM

Question: Which Potency does the source give for `CCOC(=O)C(NC(=O)OC(C)C)(Nc1nccs1)C(F)(F)F` (stereo not drawn) here?
Answer: inactive

Question: For `N#CC1=C2SCN(c3ccc(F)cc3)CN2C(=O)CC1c1cccc(F)c1` (stereo not drawn), which Potency is on record?
Answer: active: 1.58 µM

Question: For `O=C(NCCCn1ccnc1)c1cn(-c2ccccc2)nc1-c1ccccc1`, which Potency is on record?
Answer: inconclusive: 39.8 µM [inhibitor, single point]

Question: With `CCc1ccc(OC)c(S(=O)(=O)NCCOc2ccccc2)c1` as the compound, how does the Potency read?
Answer: inactive

Question: How did the Potency turn out when `Cc1cccn2c(=O)c3cc(C#N)c(=N)n(CCN4CCOCC4)c3nc12` was run?
Answer: inconclusive: 25.1 µM [inhibitor, single point]

Question: With `COc1ccccc1CNc1nc(-c2cccnc2)nc2ccccc12` as the compound, how does the Potency read?
Answer: inconclusive: 31.6 µM [inhibitor, single point]

Question: `CN1CSC2=C(C#N)C(c3cccc(OCc4ccccc4)c3)CC(=O)N2C1` (stereo not drawn) was tested. Which Potency did it give?
Answer: active: 1.26 µM

Question: For `S=C(Nc1ccccc1)Nc1nccs1`, which Potency is on record?
Answer: inconclusive: 15.8 µM [inhibitor, partial curve]

Question: Which Potency does the source give for `CCCN1CCN(C(=O)c2cccc3c2C(=O)N(CCOC)C3)CC1` here?
Answer: inconclusive: 31.6 µM [inhibitor, single point]

Question: How did the Potency turn out when `CCCn1c(CN2CCN(C(=O)OCC)CC2)nc2c1c(=O)n(C)c(=O)n2C` was run?
Answer: inconclusive: 31.6 µM [inhibitor, single point]

Question: For `O=C(Cn1nnc(-c2ccncc2)n1)N1CCc2ccccc21`, which Potency is on record?
Answer: inactive

Question: How did the Potency turn out when `Cc1c(C)n(C)c2ccc(C(=O)NCc3cccs3)cc12` was run?
Answer: inconclusive: 39.8 µM [inhibitor, single point]

Question: How did the Potency turn out when `N#Cc1cnc(SCC(=O)c2ccccc2)nc1N` was run?
Answer: inconclusive: 39.8 µM [inhibitor, single point]

Question: `COC(=O)[C@@H]1CC[C@H](C)[C@@H](c2ccc(C)cc2)N1C(=O)c1ccc(/C=N\O[C@@H](C)c2cc(-c3c(C)cc(C)cc3C)no2)cc1` was tested. Which activity change, negative = inhibition did it give?
Answer: inactive: 2.87% [at 11.4 µM]

Question: How did the Potency turn out when `Cc1csc(C(C#N)C(=O)c2ccncc2)n1` (stereo not drawn) was run?
Answer: inconclusive: 25.1 µM [inhibitor, partial curve]

Question: Which Potency does the source give for `Cc1ccc(Cn2c(=O)c3ccccc3n3c(SCC(=O)N4CCCCC4C)nnc23)cc1` (stereo not drawn) here?
Answer: inconclusive: 39.8 µM [inhibitor, single point]

Question: `COc1ccccc1-c1nc(C#N)c(NCc2ccc(F)cc2)o1` was tested. Which Potency did it give?
Answer: inconclusive: 6.31 µM [inhibitor, single point]

Question: With `c1ccc2scnc2c1` as the compound, how does the Potency read?
Answer: inconclusive: 39.8 µM [inhibitor, single point]

Question: For `COc1ccc(-c2cc3nc(-c4ccccc4)cc(N4CCC5(CC4)OCCO5)n3n2)cc1`, which Potency is on record?
Answer: active: 31.6 µM

Question: `COc1ccc(S(=O)(=O)N2CCN(C(=O)c3cccs3)CC2)cc1OC` was tested. Which Potency did it give?
Answer: inconclusive: 6.31 µM [inhibitor, single point]
